Test results reported in the antibiotic and cytotoxicity screens of Wong et al. (2023).
This is one part of the list.

What was measured:
HSkMC = human skeletal muscle cells; assay: cytotoxicity call (relative viability < 0.9); conditions: 10 µM
HepG2 = assay: cytotoxicity call (relative viability < 0.9); conditions: 10 µM
S. aureus RN4220 = assay: growth inhibition call (relative growth <= 0.2); conditions: 50 µM

Compound | cytotoxicity call (HSkMC) | cytotoxicity call (HepG2) | growth inhibition call (S. aureus RN4220)
COc1cccc(-c2ccc3c(c2)O[C@H](CN(C)C(=O)C2CCC2)[C@H](C)CN([C@H](C)CO)S3(=O)=O)c1 | inactive | inactive | inactive
C[C@@H]1CCCCO[C@@H](CN(C)Cc2ccc(C(=O)O)cc2)[C@H](C)CN([C@H](C)CO)C(=O)c2cc(NC(=O)Nc3cccc4ccccc34)ccc2O1 | inactive | inactive | inactive
CC(C)NC(=O)N(C)C[C@@H]1OCCCC[C@@H](C)Oc2ccc(NC(=O)Nc3ccc(F)cc3)cc2C(=O)N([C@H](C)CO)C[C@@H]1C | inactive | inactive | inactive
C[C@H](CO)N1C[C@H](C)[C@@H](CN(C)S(=O)(=O)c2ccc(-n3cccn3)cc2)OCc2cn(nn2)CCCC1=O | inactive | inactive | inactive
C[C@H]1CN([C@@H](C)CO)C(=O)c2cc(NS(=O)(=O)c3ccc(F)cc3)ccc2O[C@@H]1CN(C)S(C)(=O)=O | inactive | inactive | inactive
C[C@@H]1CN([C@@H](C)CO)C(=O)c2cccc(NC(=O)C3CC3)c2O[C@@H]1CN(C)S(=O)(=O)c1cccs1 | inactive | inactive | inactive
C[C@H](CO)N1C[C@H](C)[C@H](CN(C)Cc2ccc(Cl)c(Cl)c2)Oc2c(NC(=O)Nc3ccc(C(F)(F)F)cc3)cccc2C1=O | inactive | inactive | inactive
C[C@@H]1CN([C@@H](C)CO)C(=O)c2cc(NS(C)(=O)=O)ccc2O[C@@H](C)CCCCO[C@@H]1CN(C)C(=O)Nc1ccc(C(F)(F)F)cc1 | inactive | inactive | inactive
CC(C)(C)[S@](=O)N1Cc2cc(C(=O)NCCN3CCCCC3)nc(-c3cccc(-c4cccc(C#N)c4)c3)c2[C@@H]1CCO | inactive | inactive | inactive
C[C@@H]1CN([C@@H](C)CO)C(=O)c2cc(NS(=O)(=O)c3ccc(F)cc3)ccc2O[C@@H](C)CCCCO[C@H]1CN(C)C(=O)C1CCCCC1 | inactive | inactive | inactive
C[C@@H]1CN([C@@H](C)CO)C(=O)c2cc(NS(=O)(=O)c3cn(C)cn3)ccc2O[C@@H](C)CCCCO[C@@H]1CN(C)C(=O)Nc1ccc(C(F)(F)F)cc1 | inactive | inactive | active
C[C@H]1CCCCO[C@@H](CN(C)Cc2ccc(C(=O)O)cc2)[C@@H](C)CN([C@@H](C)CO)C(=O)c2cc(NC(=O)Nc3ccc(F)cc3)ccc2O1 | inactive | inactive | inactive
CC[C@H]1OC(=O)[C@H](C)[C@@H](O[C@H]2C[C@@](C)(OC)[C@@H](O)[C@H](C)O2)[C@@H](C)[C@@H](O[C@H]2O[C@H](C)C[C@H](N(C)C)[C@H]2O)[C@](C)(O)C[C@@H](C)C(=O)[C@H](C)[C@@H](O)[C@]1(C)O | inactive | inactive | active
COc1ccc(NC(=O)Nc2ccc3c(c2)C(=O)N([C@H](C)CO)C[C@H](C)[C@H](CN(C)S(=O)(=O)c2ccc(F)cc2)OCCCC[C@@H](C)O3)cc1 | inactive | inactive | inactive
CC(C)N1C[C@@H](CN(C)Cc2ccc(Cl)cc2)Oc2c(cccc2-c2nnc(-c3ccncc3)o2)C1=O | inactive | inactive | inactive
c1cnc2c(c1)OCCN2 | inactive | inactive | inactive
C[C@H]1CN([C@@H](C)CO)C(=O)c2cccc(NC(=O)c3ccncc3)c2O[C@H]1CN(C)C(=O)Nc1ccc2c(c1)OCO2 | inactive | inactive | inactive
CN(C)CCOc1ccc([N+](=O)[O-])cn1 | inactive | inactive | inactive
C/C=C/c1ccc2c(c1)O[C@H](CN(C)S(=O)(=O)c1ccc(F)cc1)[C@H](C)CN([C@@H](C)CO)S2(=O)=O | inactive | inactive | inactive
COc1ccc(NC(=O)Nc2ccc3c(c2)C(=O)N([C@H](C)CO)C[C@H](C)[C@H](CN(C)C(=O)Nc2ccc(F)cc2)OCCCC[C@H](C)O3)cc1 | inactive | inactive | inactive
CC(C)NC(=O)N(C)C[C@@H]1Oc2c(NC(=O)Nc3ccc4c(c3)OCO4)cccc2C(=O)N([C@@H](C)CO)C[C@@H]1C | inactive | inactive | inactive
C[C@@H]1CN([C@@H](C)CO)C(=O)c2cc(NC(=O)CCN3CCOCC3)ccc2O[C@H]1CN(C)C(=O)NC1CCCCC1 | inactive | inactive | inactive
OCCN1CCN(c2ncnc3c2ncn3[C@H]2CN(Cc3ccc(Cl)cc3)C[C@@H](CO)O2)CC1 | inactive | inactive | inactive
